# In PubChem BioAssay AID1347073 (National Center for Advancing Translational Sciences (NCATS), 2019):
# In all, about 45,000 compounds went through this assay and about 200 (0.44%) were called active. Another 7% or so got no clear call; they are omitted. The call rests on the fitted dose curve; in most records, active means well fitted activation curve with a large enough effect; inconclusive means small, poorly fitted or top-dose-only effect; inactive means no such curve, though single readings can be large or run the other way. The list shows a part of the results.
# Experiment: qHTS of TDP-43 Inhibitors: NCGC Sytravon Library Screen; further: 0% is about no effect; nearly all actives have a fitted effect of over 55% in size
# Settings: yeast TDP-43 toxicity rescue, BacTiter-Glo growth, 24 h; series mostly up to 46.1 µM; growth rescue (activation): at the top concentration
# Method in brief: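 TDP-43-expressing yeast, pregrown in raffinose, seeded at OD600 0.02 in galactose medium with compound for 24 hr at 30 deg C. Growth read by BacTiter-Glo luminescence, so rescue of toxicity appears as activation.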
row,SMILES,growth rescue (activation)
1,COc1cc(/C=C/C(=O)O)cc(S(=O)(=O)Nc2ccccc2C(=O)NCCc2ccccc2)c1OC,inactive: 2.65%
2,COC(=O)COc1c(Cl)cc(C(c2c(C)[nH][nH]c2=O)c2c(C)[nH][nH]c2=O)cc1OC,inactive: -24.7%
3,CN(CCOc1ccccc1)S(=O)(=O)c1ccc2oc3ccccc3c2c1,inactive: 25.6%
4,COc1ccc(OCc2nnc(NC(=O)Nc3ccccc3F)s2)cc1,inactive: -5.32%
5,COc1ccccc1N=Nc1[nH]c2ccc(C)cc2c1O,inactive: 11.3%
6,O=C(Nc1ccc2cn[nH]c2c1)c1c(Cl)cccc1Cl,inactive: -18.7%
7,CC(C)NC(=S)N(CCc1ccncc1)C(C)C,inactive: -4%
8,COC(=O)c1cc(C#N)c(N2CC(C)OC(C)C2)nc1C (stereo not given),inactive: 0.531%
9,N#Cc1ccccc1S(=O)(=O)N1CCN(C(=O)CN2CCCSc3ccccc32)CC1,inactive: 23.7%
10,Cc1cc(C)c(NC(=O)COC(=O)/C=C/c2cccs2)c(C)c1,inactive: -8.51%
11,COC(=O)c1ccc(NC(=O)CCOc2ccccc2)cc1,inactive: 26.9%
12,O=C(NCc1ccc(F)cc1)c1cc(C2CCCCN2C(=O)OCCF)on1 (stereo not given),inactive: 6.86%
13,CC(=O)N1CCC(=NNc2nc3ccccc3[nH]2)CC1,inactive: -6.18%
14,Cc1ccc(S(=O)(=O)NCC(=O)NCC(=O)N2CCN(c3ncccn3)CC2)cc1C,inactive: 7.5%
15,CC(C)CN(CC(C)C)CC(O)COc1ccccc1Br (stereo not given),inactive: 13.8%
16,CCCOc1ccc(-c2c(=O)n(O)c3ccccc3[n+]2[O-])cc1,inactive: -12.5%
17,CCOc1ccc(NC(=O)C/C(C)=N/NC(=O)Cc2cccs2)cc1,inactive: 5.16%
18,COc1cc(S(=O)(=O)N2CCCN(C)CC2)ccc1NC(C)=O,inactive: 2.88%
19,CCOC(=O)N1CCN(Cc2cc(Cl)c3cccnc3c2O)CC1,inactive: 15.9%
20,Cc1cccc(NC(=O)Cn2c(=O)oc3cc(S(=O)(=O)N4CCCCCC4)ccc32)c1,inactive: -3.24%
21,CCCCc1ccc(NC(=O)c2ccc(NS(C)(=O)=O)cc2)cc1,inactive: 7.68%
22,O=C(c1cccc2ccccc12)C1CCCN(C(=O)CCc2cnccn2)C1 (stereo not given),inactive: 18%
23,Cc1cc(C)cc(N2CCCn3c2nc2c3c(=O)[nH]c(=O)n2C)c1,inactive: -5.25%
24,COc1ccc(S(=O)(=O)NC(C)C(=O)NCc2ccco2)cc1OC (stereo not given),inactive: -14.8%
25,Cc1ccccc1NC(=O)c1ccc(S(=O)(=O)N2CCCC2)cc1,inactive: 12.7%
26,COc1ccc(NC(C)=O)cc1NC(=O)CSc1nnc(C2CCCCC2)n1N,inactive: 9.78%
27,O=C1CC(N2CCN(S(=O)(=O)c3ccccc3F)CC2)C(=O)N1c1ccccc1Cl (stereo not given),inactive: 35.3%
28,Cc1cnc(C(=O)OCC(=O)NC2CCCCCC2)cn1,inactive: -0.107%
29,COc1ccc(-c2nn(-c3ccccc3)cc2/C=C\C(=O)Nc2ccc(C(=O)O)cc2)cc1,inactive: -4.16%
30,CCOc1ccccc1N1CCN(C(=O)C(Sc2ccccc2)c2ccccc2)CC1 (stereo not given),inactive: 5.09%
